Experiment [1] relates to mixed spore suspension of the drug-resistant and drug-sensitive strain of Botrytis cinerea. In words: Preventive effect on gray mold of tomato, mixed spore suspension, sole and combined use. The note with it: sole use.
The subject of experiment [2] is mixed spore suspension of the drug-resistant and drug-sensitive strain of Sphaerotheca fuliginea. In words: Preventive effect on powdery mildew of cucumber, mixed spore suspension, sole and combined use. The note with it: Podosphaera fuliginea, topical, 240 h, read-out: Prevention value.

With `C=CC1(C)OC(=O)N(c2cc(Cl)cc(Cl)c2)C1=O` (stereo not shown) [K, 3-(3',5'-Dichloro-phenyl)-5-methyl-5-vinyloxazolidin-2,4-dione], the figures for the Prevention value in experiment [1] (20 ppm active ingredient) and in experiment [1] (100 ppm active ingredient) were 15% and 42%, respectively.
Take `CC(C)NC(=O)N1CC(=O)N(c2cc(Cl)cc(Cl)c2)C1=O` [Compound J, 3-(3',5'-Dichloro-phenyl)-1-isopropyl-carbamoylimida-zolidin-2,4-dione]: the results for the Prevention value in experiment [1] (100 ppm active ingredient) and in experiment [1] (500 ppm active ingredient) were 18% and 46%, respectively.
Regarding `CCOc1ccc(NC(=O)OC(C)C)cc1COC` [compound 77, isopropyl N-(3-methoxymethyl-4-ethoxyphenyl)carbamate], in experiment [2], the pest or weed control at 20 ppm was 0% and the pest or weed control at 100 ppm was found to be 42%. Besides, the Prevention value in experiment [1] (20 ppm active ingredient) was determined as 0%. The Prevention value in experiment [1] (100 ppm active ingredient) was 40%.
Consider `CCOc1ccc(NC(=O)OC(C)C)cc1CC` [Compound No. 50, isopropyl N-(3-ethyl-4-ethoxyphenyl)carbamate], for which, in experiment [2], the pest or weed control at 20 ppm came out at 0% and the pest or weed control at 100 ppm worked out at 44%. Moreover, the Prevention value in experiment [1] (20 ppm active ingredient) worked out at 0%. In experiment [1] (100 ppm active ingredient), the Prevention value came out at 40%.
For `CC12CC1(C)C(=O)N(c1cc(Cl)cc(Cl)c1)C2=O` (stereo not shown) [I, N-(3',5'-Dichloro-phenyl)-1,2-dimethyl-cyclopropane-1,2-di-carboximide], the Prevention value in experiment [1] (20 ppm active ingredient) turned out to be 22%; in experiment [1] (100 ppm active ingredient), 48%.
In the case of `CCOC(=O)NC(=S)Nc1ccccc1NC(=S)NC(=O)OCC` [F, 1,2-Bis(3-ethoxy-carbonyl-2-thio-ureido)benzene], in experiment [2], the pest or weed control at 20 ppm stood at 8% and the pest or weed control at 100 ppm was 43%.
Consider `CCOC(=O)C1(C)OC(=O)N(c2cc(Cl)cc(Cl)c2)C1=O` (racemic) [L, Ethyl (RS)-3-(3',5'-dichlorophenyl)-5-methyl-2,4-dioxo-oxazolidine-5-carboxylate], for which the Prevention value in experiment [1] (100 ppm active ingredient) is given as 12%; in experiment [1] (500 ppm active ingredient) it was 42%.
With `CCCCNC(=O)n1c(NC(=O)OC)nc2ccccc21` [A, Methyl 1-(butyl-carbamoyl)benz-imidazol-2-yl-carbamate], in experiment [2], the pest or weed control at 20 ppm amounted to 12% and the pest or weed control at 100 ppm was determined as 45%.
The matching figures for `COC(=O)NC(=S)Nc1ccccc1NC(=S)NC(=O)OC` [E, 1,2-Bis(3-methoxy-carbonyl-2-thio-ureido)benzene]: 10% and 44%.
On to `COC(=O)Nc1nc2ccccc2[nH]1` [C, Methyl benzimidazol-2-ylcarbamate], for which, in experiment [2], the pest or weed control at 20 ppm is 8% and the pest or weed control at 100 ppm turned out to be 42%.
Take `c1ccc2[nH]c(-c3cscn3)nc2c1` [B, 2-(4-Thiazolyl)benz-imidazole]: in experiment [2], the pest or weed control at 100 ppm was determined as 10% and the pest or weed control at 500 ppm amounted to 42%.
In the same order, the values of `c1coc(-c2nc3ccccc3[nH]2)c1` [D, 2-(2-Furyl)benz-imidazole] are 0% and 36%.

Source of the values: EP0093620A1, “Fungicidal N-phenylcarbamates” (priority 1982, dated 1983).
